Data: the supplement of paper PMC3334620
The full ranking holds about 33,000 sequences; the median of “E-score (-0.5 to 0.5)” is about -0.043, and the highest 2% start at about 0.37. This is one part of the list.

target: T1, Upc2 (UniProt Q12151); assay: PBM E-score (8-mer binding enrichment) (E-score (-0.5 to 0.5)); higher = stronger / more preferred TF binding; most listed sequences are background and not binding sites; details: protein concentration: 200 nM; construct: GST-full length
T1 sequence: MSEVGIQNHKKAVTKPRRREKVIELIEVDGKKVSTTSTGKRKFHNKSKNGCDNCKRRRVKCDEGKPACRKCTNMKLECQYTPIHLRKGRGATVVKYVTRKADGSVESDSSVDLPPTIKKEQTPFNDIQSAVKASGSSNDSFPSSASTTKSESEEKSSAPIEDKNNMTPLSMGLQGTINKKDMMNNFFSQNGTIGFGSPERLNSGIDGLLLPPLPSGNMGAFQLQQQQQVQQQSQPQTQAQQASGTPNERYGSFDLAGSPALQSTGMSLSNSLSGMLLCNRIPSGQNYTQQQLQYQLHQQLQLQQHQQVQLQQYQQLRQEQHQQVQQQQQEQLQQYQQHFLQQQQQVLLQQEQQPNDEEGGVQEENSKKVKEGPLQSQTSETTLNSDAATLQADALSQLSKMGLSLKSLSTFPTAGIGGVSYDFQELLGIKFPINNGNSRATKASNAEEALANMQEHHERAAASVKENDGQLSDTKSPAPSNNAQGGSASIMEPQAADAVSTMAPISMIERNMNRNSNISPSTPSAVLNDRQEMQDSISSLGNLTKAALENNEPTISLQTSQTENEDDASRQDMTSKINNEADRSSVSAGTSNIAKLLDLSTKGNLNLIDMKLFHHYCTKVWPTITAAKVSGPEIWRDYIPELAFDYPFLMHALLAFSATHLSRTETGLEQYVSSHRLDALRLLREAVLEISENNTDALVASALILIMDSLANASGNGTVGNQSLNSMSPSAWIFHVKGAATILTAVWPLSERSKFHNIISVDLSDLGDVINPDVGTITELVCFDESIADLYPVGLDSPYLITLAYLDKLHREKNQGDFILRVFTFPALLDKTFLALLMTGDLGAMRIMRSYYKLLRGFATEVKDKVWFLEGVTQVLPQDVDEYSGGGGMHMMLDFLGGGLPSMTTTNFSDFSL
How it was run: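 Using PURExpress in vitro transcription/translation, GST-tagged yeast transcription factors were made in full-length or DNA-binding-domain form. These were applied at about 100-200 nM to double-stranded universal all-10-mer Agilent arrays, and bound protein was detected with fluorescent anti-GST. Scans were normalised with masliner before the Universal PBM Analysis Suite assigned E-scores to ungapped eight-base words pooled with their reverse complements.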

Going from AATTTTGC to AAGCCCTG, the “PBM E-score” value falls from 0.0129 to -0.233.

Going from AATATGCG to CCTATTAG, the “PBM E-score” value falls from 0.169 to -0.201.

Going from CCCCATAA to CAGCATCG, the “PBM E-score” value rises from -0.161 to -0.0921.

Compared with AGGGATTC, CGCTGGCA is lower in “PBM E-score” value: -0.139 for the first, -0.205 for the second.

Going from CCATATGC to CGTCGTAA, the “PBM E-score” value rises from 0.167 to 0.457.

Going from CACAGATC to AATGGGTC, the “PBM E-score” value falls from -0.161 to -0.193.

Compared with CCGATCCC, GCGCCATA is higher in “PBM E-score” value: -0.22 for the first, -0.0194 for the second.

First: AGTTTGCA
Second: AAATGCAG
The “PBM E-score” value of the first is higher: -0.0759 for the first, -0.0984 for the second.

Compared with TCTTGCCA, TCAGGGAA is higher in “PBM E-score” value: -0.303 for the first, -0.0302 for the second.

First: CAACTTCC
Second: ACCTAGTG
The “PBM E-score” value of the first is higher: 0.0137 for the first, -0.116 for the second.

First: AGAGACTA
Second: CACAGCTC
The “PBM E-score” value of the first is higher: 0.0121 for the first, -0.171 for the second.

Going from AAGATTGG to GGCACGAC, the “PBM E-score” value falls from -0.0467 to -0.0971.

Going from AAATTCTG to ACCGACGT, the “PBM E-score” value rises from -0.113 to 0.238.

Going from ATCTACTG to GCACGTTA, the “PBM E-score” value rises from -0.0785 to 0.182.

Compared with CATGTGGG, CACAGTGA is higher in “PBM E-score” value: -0.251 for the first, -0.0917 for the second.

First: AACGGTTC
Second: AAAGACAA
The “PBM E-score” value of the first is higher: 0.166 for the first, -0.117 for the second.

Compared with ACCTGTTC, CCGGCAAA is lower in “PBM E-score” value: 0.115 for the first, -0.0642 for the second.

First: AGCACAAT
Second: ACACCATC
The “PBM E-score” value of the first is higher: -0.0573 for the first, -0.205 for the second.

First: GTAATAAA
Second: GTCAGTTA
The “PBM E-score” value of the first is higher: 0.199 for the first, -0.206 for the second.

Going from CATGTTTA to CCCAGGCG, the “PBM E-score” value falls from 0.118 to -0.257.

Compared with CTCTTCTC, CATTCACA is higher in “PBM E-score” value: -0.306 for the first, -0.114 for the second.

Going from ACTTGCTC to ACCATAAT, the “PBM E-score” value rises from -0.149 to 0.0536.

Going from TATGAAGA to GCATTTTA, the “PBM E-score” value rises from -0.105 to 0.0992.

Compared with AAGCAATT, AGATGTGA is higher in “PBM E-score” value: -0.0358 for the first, 0.0909 for the second.

Compared with CATCGACC, GAATGATA is higher in “PBM E-score” value: -0.268 for the first, 0.0972 for the second.

First: AAAACTCA
Second: ACGGCACT
The “PBM E-score” value of the first is lower: -0.0631 for the first, 0.0539 for the second.

Compared with CGTGTGAG, GCTGTTAA is higher in “PBM E-score” value: 0.0442 for the first, 0.0878 for the second.

First: CAGTGACG
Second: ACGCGTTG
The “PBM E-score” value of the first is lower: -0.0661 for the first, 0.143 for the second.

Compared with CCGTCCTA, ACAGCTAT is higher in “PBM E-score” value: -0.255 for the first, -0.0224 for the second.

First: GTACCAAC
Second: ATCGAAAC
The “PBM E-score” value of the first is lower: 0.0659 for the first, 0.108 for the second.

Compared with GCCTAAAA, CCTGCGCA is lower in “PBM E-score” value: -0.113 for the first, -0.215 for the second.

Going from CAGGCCCA to ACGCTGAC, the “PBM E-score” value rises from -0.0949 to 0.0482.

First: CTTACGCC
Second: ATCGGGTA
The “PBM E-score” value of the first is higher: 0.0225 for the first, 0.00096 for the second.

Compared with TACATCGA, CCAGTTCG is lower in “PBM E-score” value: 0.038 for the first, -0.0466 for the second.

Going from AGGAATCC to ACTCCTTG, the “PBM E-score” value rises from -0.273 to -0.0918.

First: AAATACGA
Second: ACGCTACC
The “PBM E-score” value of the first is higher: 0.449 for the first, -0.0535 for the second.

Going from ATTTTATC to AGAGGCCC, the “PBM E-score” value falls from 0.0665 to -0.291.

Compared with AGCGATTC, GCCAACCC is lower in “PBM E-score” value: 0.181 for the first, -0.246 for the second.

Compared with GAGGTTAA, ATCGTGAC is higher in “PBM E-score” value: -0.188 for the first, -0.0435 for the second.

Compared with CAATTACC, ATTCTCGA is higher in “PBM E-score” value: 0.0038 for the first, 0.0918 for the second.

Going from GCTTAGTA to CCATAGTA, the “PBM E-score” value falls from 0.00514 to -0.0892.

First: AGTGAACG
Second: CTGCTACC
The “PBM E-score” value of the first is higher: 0.316 for the first, -0.161 for the second.

First: AACTAAAC
Second: CGCCGGAG
The “PBM E-score” value of the first is higher: 0.227 for the first, 0.113 for the second.
